Drawing on the supplement of paper PMC10600219, this text covers cell viability for 74 compounds.

Where a name gives a salt, the structure may show the parent alone. In all, about 2,800 compounds were measured (“cell viability relative to vehicle”: median about 1.1, lowest 2% from about 0.19 on). This is one part of the list.

For the test, the system named is NCI-H2228 parental. Kind of test: cell viability relative to vehicle (fraction of vehicle); NCI-H2228 is an ALK-positive lung cancer line and DTP means drug-tolerant persister; higher = less growth inhibition. The conditions noted are these: 100 nM; treatment time 6 days. Put shortly: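 Values give cell viability as a fraction of vehicle-treated cells. Parental and drug-tolerant persister NCI-H2228 cells (persisters made with 1000 nM of a targeted drug for 13 days) were exposed in 384-well plates to the 3114-agent TargetMol anti-cancer compound library at 100 nM, with DMSO as vehicle. ATP was then read after 6 days by the CellTiter-Glo 3D Cell Viability Assay.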
Consider `O=C(CBr)c1ccc(O)cc1` [PTP Inhibitor I], for which the cell viability was determined as 1.01.
Then `Cc1ncc(CNC(=O)N(CCCl)N=O)c(N)n1` [Nimustine Hydrochloride], with 1.05.
Then `COC(=O)[C@]1(C)CC[C@]2(C)CC[C@]3(C)C4=CC=C5C(=CC(=O)C(O)=C5C)[C@]4(C)CC[C@@]3(C)[C@@H]2C1` [Pristimerin], with 1.03; and `CC1=C(O)C(=O)C=C2C1=CC=C1[C@@]2(C)CC[C@@]2(C)[C@@H]3C[C@](C)(C(=O)O)CC[C@]3(C)CC[C@]12C` [Celastrol], with 1.03; and `COc1cc(-n2c(=S)[nH]c3ccccc3c2=O)c(Cl)cc1Cl` [Mdivi 1], with 1.08.
Next, `N.N.[Cl][Pt][Cl]` [Cisplatin]: 1.24; `COc1ccc(C(=O)N2CCCC2=O)cc1` [Aniracetam]: 1.08.
On to `O=C(O)CCCCCCCCCO` [10-Hydroxydecanoic Acid], for which the cell viability was determined as 1.17.
Then `O=C(O[C@H]1C[C@H]2CC[C@@H](C1)[N+]21CCCC1)C(O)(c1ccccc1)c1ccccc1` [Trospium chloride], with 1.24.
Next, `O=C(O)CCCc1ccc(N(CCCl)CCCl)cc1` [Chloroambucil]: 1; `COc1ccc(-n2nc(C(F)(F)F)cc2-c2ccc(Cl)cc2)cc1`: 1.12; `C[C@]12CCC(=O)C=C1CC[C@@H]1[C@@H]2C(=O)C[C@]2(C)C(=O)CC[C@@H]12` [Adrenosterone]: 1.16.
Then `NC(=O)CN1CC(O)CC1=O` (centres undefined) [Oxiracetam], with 1; and `Cc1c(C(=O)Nc2cccc(C(F)(F)F)c2)cc(-c2ccccc2)n1CCCN1CCOCC1`, with 0.941.
Regarding `CC(C)=CCC[C@H](C(=O)O)[C@H]1CC[C@]2(C)C3=C(CC[C@@]12C)[C@@]1(C)CCC(=O)C(C)(C)[C@H]1CC3` [β-Elemonic Acid], the cell viability was determined as 1.07.
Then `Clc1ccc([C@]23CNC[C@H]2C3)cc1Cl` [Amitifadine hydrochloride], with 1.25; and `CN1CCC(c2c[nH]c3ccc(O)cc23)CC1`, with 1.06; and `C1=C2CCCN[C@H]2[C@@H]2C[C@H]1[C@H]1CCCCN1C2` [Aloperine], with 0.944.
Next, `COc1cc([C@@H]2c3cc4c(cc3[C@H](O)[C@H]3COC(=O)[C@@H]23)OCO4)cc(OC)c1OC` [Picropodophyllin]: 0.795; `C/C(=C\c1csc(C)n1)[C@@H]1C[C@@H]2O[C@]2(C)CCC[C@H](C)[C@H](O)[C@@H](C)C(=O)C(C)(C)[C@@H](O)CC(=O)O1` [Epothilone B]: 0.141; `C=C[C@H]1CN2CC[C@H]1C[C@@H]2[C@@H](O)c1ccnc2ccccc12` [Cinchonine]: 1.14.
Then `C1CCc2nnnn2CC1` [Pentetrazol], with 1.21.
In the case of `C/C=C/c1cc(OC)c(OC)cc1OC` [alpha-Asarone], the cell viability turned out to be 0.991.
Then `C=CC[C@]1(O)CC[C@H]2[C@@H]3CCC4=CC(=O)CCC4=C3C=C[C@@]21C` [Altrenogest], with 1.25; and `COCC1(CO)C(=O)C2CCN1CC2` (centres undefined), with 1.04.
Take `Cc1ccccc1-n1c(Cn2cnc3c(N)ncnc32)nc2cccc(C)c2c1=O`: the cell viability turned out to be 1.11.
Turning to `C=CCN1CC[C@]23c4c5ccc(O)c4O[C@H]2[C@@H](OCCOCCOCCOCCOCCOCCOCCOC)CC[C@@]3(O)[C@H]1C5` [Naloxegol oxalate], the cell viability was determined as 1.03.
Regarding `COC[C@H]1OC(=O)c2coc3c2[C@@]1(C)C1=C(C3=O)[C@@H]2CCC(=O)[C@@]2(C)C[C@H]1OC(C)=O` [Wortmannin], the cell viability came to 1.03.
Next, `CC1(C)CC(O)CC(C)(C)N1[O]` [Tempol]: 1.12.
Next, `O=S(=O)(CC1CS1)c1ccc(Oc2ccccc2)cc1` (centres undefined): 1.04; `CN1[C@@H]2CC(O)C[C@H]1[C@@H]1O[C@@H]12` (some centres undefined) [Scopine]: 1.06.
Then `NCCCNCCCN` [Bis(3-aminopropyl)amine], with 0.96; and `C#C[C@]1(O)CC[C@H]2[C@@H]3CCC4=CC(=O)CC[C@]4(C)[C@H]3CC[C@@]21C` [Ethisterone], with 1.13.
On to `CC(=O)OC(C)(C)/C=C/C(=O)[C@](C)(O)[C@H]1[C@H](O)C[C@@]2(C)[C@@H]3CC=C4[C@H](C[C@H](O)C(=O)C4(C)C)[C@]3(C)C(=O)C[C@]12C` [Cucurbitacin B], for which the cell viability was determined as 0.223.
Then `CC(C)(C)c1cc(C(C)(C)C)c2c(c1)C(O)(C(F)(F)F)C(=O)O2` (racemic), with 1.06.
Next, `CC[C@H]1CN2CC[C@H]1C[C@@H]2[C@@H](O)c1ccnc2ccc(OC)cc12` [Hydroquinidine]: 0.984; `O=C(N[C@H]1CN2CCC1CC2)c1ccc(Cl)cc1`: 0.943; `C=CC[C@]1(O)CC[C@H]2[C@@H]3CCC4=CCCC[C@@H]4[C@H]3CC[C@@]21C` [Allylestrenol]: 1.22.
Next, `NCC(CC(=O)O)c1ccccc1` (centres undefined) [Phenibut]: 1.09.
With `COc1ccc(/C=C/c2cc(OC)cc(OC)c2)cc1` [Trimethoxystilbene], the cell viability stood at 1.05.
Take `C[C@]12CC[C@H](O)C[C@H]1CC[C@@H]1[C@@H]2CC[C@]2(C)[C@@H](c3ccc(=O)oc3)CC[C@]12O` [Bufalin]: the cell viability came out at 0.423.
Regarding `CN1[C@@H]2CC[C@H]1C[C@@H](OC(=O)[C@H](CO)c1ccccc1)C2` [L-Hyoscyamine], the cell viability is 1.25.
Next, `CCC(C)C(=O)O[C@@H]1[C@@H](OC(C)=O)[C@]2(C)[C@H](C(C)=O)CC[C@@]23O[C@]32CC[C@H]3C[C@@H](O[C@H]4C[C@@H](OC)[C@H](O[C@@H]5O[C@H](C)[C@@H](O)[C@@H](OC)[C@H]5O)[C@@H](C)O4)CC[C@]3(C)[C@@H]12` (some centres undefined) [Tenacissoside H]: 1.11; `NCCc1ccc(S(=O)(=O)F)cc1` [AEBSF hydrochloride]: 1.13.
Next, `CC(C)=CCOc1c2occc2cc2ccc(=O)oc12` [Imperatorin]: 0.977; `N[C@@H](Cc1ccc(N(CCCl)CCCl)cc1)C(=O)O` [Melphalan]: 1.15; `C[C@@]12C[C@@H](c3ccoc3)OC(=O)[C@@H]1CC[C@]1(C)[C@H]2[C@@H]2C=C[C@@]1(O)C(=O)O2` [Columbin]: 1.06.
Take `CCO[C@H]1O[C@@H]2O[C@@]3(C)CC[C@H]4[C@H](C)CC[C@@H]([C@H]1C)[C@@]24OO3` [Arteether]: the cell viability worked out at 1.06.
Take `CC(C)N(CCC(C(N)=O)(c1ccccc1)c1ccccn1)C(C)C` (centres undefined) [Disopyramide]: the cell viability was determined as 0.956.
Next, `C/C=C(\C)C(=O)N[C@@H](c1ccccc1)[C@@H](O)C(=O)O[C@H]1C[C@@]2(O)[C@@H](OC(=O)c3ccccc3)[C@@H]3[C@]4(OC(C)=O)CO[C@@H]4C[C@H](O)[C@@]3(C)C(=O)[C@H](OC(C)=O)C(=C1C)C2(C)C` [Cephalomannine]: 0.129; `CN(C)NC(=O)CCC(=O)O` [Daminozide]: 1.1.
`NCCc1c[nH]c2ccc(O)cc12` [Serotonin hydrochloride]: the cell viability came to 1.06.
For the compound `COc1ccc2c(c1)[nH]c1c(C)nccc12` [Harmine], the cell viability is 1.07.
Consider `COc1ccc2c(c1)/C(=C/c1cnc[nH]1)C(=O)N2`, for which the cell viability was determined as 1.
Then `COc1ccc(C[C@H]2NC[C@H](O)[C@H]2OC(C)=O)cc1` [Anisomycin], with 0.376; and `COc1cc([C@@H]2c3cc4c(cc3[C@H](O)[C@H]3COC(=O)[C@H]23)OCO4)cc(OC)c1OC` [Podophyllotoxin], with 0.279.
Next, `CC(C)=CCC[C@](C)(O)[C@H]1CC[C@]2(C)[C@@H]1[C@H](O)C[C@@H]1[C@@]3(C)CC[C@H](O)C(C)(C)[C@@H]3[C@@H](O[C@@H]3O[C@H](CO)[C@@H](O)[C@H](O)[C@H]3O)C[C@]12C` [Ginsenoside Rh1]: 1.07.
As to `C[C@@H]1CN(Cc2ccc(F)cc2)CCN1C(=O)COc1ccc(Cl)cc1NC(N)=O`, the cell viability turned out to be 1.19.
Consider `CC(C)(C)NCC(O)c1ccccc1Cl` (centres undefined) [Tulobuterol hydrochloride], for which the cell viability was 1.04.
Next, `Cc1cccc([C@H](C)c2c[nH]cn2)c1C` [Dexmedetomidine HCl]: 1.04; `Cc1cccc([C@H](C)c2c[nH]cn2)c1C` [Dexmedetomidine]: 1.25; `C#C[C@]1(O)C=C[C@H]2[C@@H]3CCC4=CC(=O)CC[C@@H]4[C@H]3CC[C@@]21CC` [Gestodene]: 1.18.
Then `C[C@@H]1CCC=C2C(=O)C[C@H]3OOC(C)(C)[C@H]3[C@]21C` [Nardosinone], with 0.987; and `CC(=O)OC12COC1CC(O)C1(C)C(=O)C(O)C3=C(C)C(O)CC(O)(C(OC(=O)c4ccccc4)C21)C3(C)C` (centres undefined) [10-Deacetylbaccatin III], with 1.13.
Then `C[N+]12CCC(CC1)C(OC(=O)C(O)(c1ccccc1)c1ccccc1)C2` (centres undefined) [Clidinium bromide], with 1.12.
With `CO[C@]12C[C@@H](COC(=O)c3cncc(Br)c3)CN(C)[C@@H]1Cc1cn(C)c3cccc2c13` [Nicergoline], the cell viability was 0.878.
Next, `C[C@H]1C(=O)O[C@@H]2CCN3CC=C(COC(=O)[C@](C)(O)[C@]1(C)O)[C@H]23` [Monocrotaline]: 1.18; `CC1=C[C@H]2[C@@]3(O)[C@H](C)[C@@H](O)[C@]4(O)[C@H]([C@@H]3C=C(CO)C[C@]2(O)C1=O)C4(C)C` [Phorbol]: 0.966; `N#C/C=C1/C=C[C@@H](O)[C@H](O)[C@H]1O[C@@H]1O[C@H](CO)[C@@H](O)[C@H](O)[C@H]1O` [Griffonin]: 1.11.
Then `CC(C)c1c(CN(C)C(C)Cc2ccccc2)n(C)n(-c2ccccc2)c1=O` (centres undefined) [Famprofazone], with 1.1.
In the case of `O=P1(NCCCl)OCCCN1CCCl` (centres undefined) [Ifosfamide], the cell viability was 1.1.
Then `O=C1CCC[C@@H]2[C@H]3CCCN4CCC[C@@H](CN12)[C@@H]34` [(+)-Matrine], with 0.953; and `Cc1cccc(C)c1NC1=NCCCS1` [Xylazine hydrochloride], with 0.965.
On to `CN1C(=O)COc2c(C(=O)NC3CN4CCC3CC4)cc(Cl)cc21` (centres undefined) [Azasetron hydrochloride], for which the cell viability stood at 1.38.
